Experimental data taken from the supplement of paper PMC12217912.
The other results are listed elsewhere or left out. The full chains were built here from the parent and the listed change. Inactive controls read about 0.05.

B1: TEV protease; numbered along this chain (parent)
chain: MGESLFKGPRDYNPISSSICHLTNESDGHTTSLYGIGFGPFIITNKHLFRRNNGTLVVQSLHGVFKVKDTTTLQQHLVDGRDMIIIRMPKDFPPFPQKLKFREPQREERICLVTTNFQTKSMSSMVSDTSCTFPSGDGIFWKHWIQTKDGQCGSPLVSTRDGFIVGIHSASNFTNTNNYFTSVPKNFMELLTNQEAQQWVSGWRLNADSVLWGGHKVFMVKPEEPFQPVKEATQL

Variants of: B1
Experiment: raw area under fraction-flipped curve 0-4 h after induction (AUC4h, not background-subtracted), DNA-recorder readout of cleavage of the substrate (dimensionless); higher = more cleavage of the substrate by the protease variant
Details: temperature: 34 °C; time window: 0-4 h after rhamnose induction
Protocol: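 In vivo DNA recorder in E. coli TOP10(DE3) ΔrhaA at 34 °C. Each TEVp single-site mutant (parent TEVp 0) is paired with a single-site variant of the 7-mer TEVs (canonical ENLYFQ|S). The substrate sits between flexible linkers in a Bxb1-sfGFP-TEVs-SsrA fusion, so cleavage stabilises Bxb1 and speeds flipping of a recombination array, read by NGS. The value is the raw area under the fraction-flipped curve over 0-4 h after rhamnose induction (AUC4h), with ≥20 reads per time point. It is not background-subtracted; inactive controls average about 0.047.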
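Note: Bxb1 expression induced with 0.2% (w/v) L-rhamnose at OD600 near 0.5, cultures sampled hourly, flipped fraction per protease–substrate barcode pair counted by paired-end Illumina sequencing.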

Row | Variant | area with substrate ENLAFQS | area with substrate ENLCFQS | area with substrate ENLDFQS | area with substrate ENLFFQS | area with substrate ENLHFQS | area with substrate ENLIFQS | area with substrate ENLLFQS | area with substrate ENLNFQS | area with substrate ENLPFQS | area with substrate ENLRFQS | area with substrate ENLSFQS | area with substrate ENLVFQS | area with substrate ENLWFQS | area with substrate ENLEFQS | area with substrate ENLGFQS | area with substrate ENLKFQS | area with substrate ENLTFQS | area with substrate ENLQFQS | area with substrate ENLMFQS
1 | F117S | 0.0629 | 0.076 | 0.0593 | 0.0982 | 0.083 | 0.0728 | 0.0717 | 0.0582 | 0.0583 | 0.075 | 0.0525 | 0.083 | 0.0996 | – | – | – | – | – | –
2 | F117C | 0.0525 | 0.0557 | 0.0544 | 0.0488 | 0.0532 | 0.047 | 0.119 | 0.0503 | 0.0246 | – | – | 0.0638 | – | 0.105 | 0.0641 | 0.085 | 0.0735 | – | –
3 | F117Q | 0.0837 | 0.0665 | 0.0676 | 0.0955 | 0.0847 | – | – | 0.0442 | – | – | – | – | 0.0748 | 0.0565 | 0.0608 | 0.0776 | – | 0.0683 | –
4 | D91K | 0.0876 | – | 0.0614 | 0.0736 | 0.0629 | – | 0.154 | 0.0531 | – | – | – | – | – | 0.0599 | – | – | – | – | –
5 | D91I | 0.0773 | 0.0568 | 0.063 | – | 0.0647 | – | 0.0619 | 0.0656 | 0.047 | – | – | 0.087 | – | 0.0613 | 0.0588 | – | 0.0743 | 0.0599 | 0.0769
6 | K90R | 0.143 | – | – | – | – | – | – | 0.0709 | 0.0511 | 0.058 | – | – | – | – | – | – | – | – | –
7 | K90S | 0.0555 | – | 0.0469 | 0.0765 | – | – | – | – | – | – | 0.0684 | 0.0765 | 0.0668 | – | – | 0.0753 | – | – | 0.0788
8 | V113R | 0.0514 | 0.0645 | 0.0651 | 0.059 | 0.0771 | 0.0621 | – | 0.0517 | – | 0.0638 | 0.0408 | 0.0632 | – | 0.0276 | – | 0.0735 | – | 0.0337 | –
9 | N116H | 0.0524 | – | – | 0.0723 | 0.0582 | – | – | – | – | – | 0.0746 | – | – | – | 0.0912 | – | – | – | –
10 | F95I | 0.0513 | – | 0.0667 | 0.0691 | 0.055 | 0.061 | – | – | – | 0.0904 | 0.0905 | – | – | – | – | 0.0665 | – | – | 0.0592
11 | P93T | 0.0581 | – | 0.0617 | 0.0723 | 0.0673 | – | – | 0.067 | 0.0608 | – | – | – | – | – | 0.0702 | 0.076 | – | – | –
12 | I110L | 0.0581 | – | 0.0675 | – | 0.0672 | 0.0786 | 0.0659 | 0.0744 | – | 0.0654 | 0.0505 | – | – | 0.0763 | – | 0.0902 | – | 0.0791 | –
13 | P94R | 0.106 | 0.0893 | 0.0691 | 0.0967 | 0.0732 | – | 0.0754 | 0.0722 | 0.0476 | – | – | 0.0772 | 0.0612 | 0.0836 | 0.0924 | 0.0626 | – | – | –
14 | P94F | 0.0542 | – | 0.0654 | – | 0.0681 | – | – | – | – | – | – | 0.0868 | – | – | – | 0.0848 | – | – | –
15 | P89Q | 0.0632 | – | 0.0348 | 0.0949 | 0.0777 | – | 0.0679 | 0.0648 | 0.056 | 0.0435 | – | – | 0.073 | 0.0628 | 0.0612 | 0.0653 | – | – | –
16 | P89M | 0.0521 | – | 0.0615 | 0.0653 | 0.0517 | 0.0703 | 0.0703 | 0.0353 | 0.0454 | – | 0.0499 | – | 0.0539 | – | – | 0.0673 | – | – | –

Row | Variant | area with substrate ENLAFQS | area with substrate ENLCFQS | area with substrate ENLDFQS | area with substrate ENLFFQS | area with substrate ENLHFQS | area with substrate ENLIFQS | area with substrate ENLLFQS | area with substrate ENLNFQS | area with substrate ENLPFQS | area with substrate ENLRFQS | area with substrate ENLSFQS | area with substrate ENLVFQS | area with substrate ENLWFQS | area with substrate ENLEFQS | area with substrate ENLGFQS | area with substrate ENLKFQS | area with substrate ENLTFQS | area with substrate ENLQFQS | area with substrate ENLMFQS
17 | E103R | 0.066 | 0.0617 | 0.0643 | 0.085 | 0.0617 | 0.0903 | 0.0655 | 0.0527 | 0.0595 | – | 0.0534 | 0.0746 | 0.0582 | 0.066 | 0.0824 | 0.0723 | – | 0.0558 | –
18 | F101L | 0.0713 | – | – | 0.0554 | – | 0.0844 | – | 0.0607 | 0.0271 | – | – | – | 0.0659 | – | – | 0.0692 | – | 0.0781 | –
19 | T114E | 0.0709 | – | 0.0624 | 0.065 | 0.0688 | 0.0787 | 0.0814 | – | 0.0521 | – | – | 0.0795 | 0.0653 | 0.0554 | – | – | – | – | –
20 | T114I | 0.0733 | – | 0.0767 | – | 0.0675 | 0.0796 | 0.0703 | 0.0648 | 0.0539 | 0.0696 | 0.0599 | – | – | 0.0441 | 0.0586 | 0.0771 | 0.0718 | 0.0785 | 0.0418
21 | R109V | 0.0517 | 0.0663 | 0.0595 | 0.0813 | 0.0696 | 0.0761 | 0.0788 | 0.0841 | 0.0706 | 0.0575 | – | – | 0.0593 | – | – | – | – | 0.0621 | –
22 | Q118D | 0.0669 | – | 0.0739 | 0.0607 | – | 0.0798 | – | – | 0.0615 | 0.0701 | 0.052 | – | – | 0.0699 | 0.0588 | 0.0732 | – | – | –
23 | Q118I | 0.0486 | 0.0711 | 0.0618 | 0.0806 | – | 0.0795 | 0.0765 | 0.0551 | 0.0685 | 0.0736 | 0.0657 | – | – | 0.0706 | – | 0.0862 | – | 0.123 | –
24 | E107P | 0.0385 | – | 0.0476 | 0.0733 | 0.0753 | 0.0679 | – | 0.0649 | 0.062 | 0.0719 | – | – | 0.087 | 0.07 | – | – | – | 0.0861 | –
25 | E107R | 0.0627 | – | 0.067 | – | 0.0684 | – | – | 0.0735 | 0.058 | – | 0.0203 | 0.0861 | – | 0.0685 | – | – | – | – | –
26 | K98D | 0.0707 | 0.0705 | 0.069 | 0.0914 | 0.0818 | 0.0954 | – | 0.0716 | 0.0592 | 0.0654 | – | 0.0983 | 0.0686 | 0.0613 | – | 0.0877 | 0.0688 | 0.0695 | 0.07
27 | Q105S | 0.0746 | 0.0815 | 0.0634 | 0.0803 | – | – | 0.0747 | 0.0528 | 0.0581 | 0.0677 | 0.0596 | – | – | – | – | – | – | – | –
28 | P96I | 0.0654 | 0.0523 | 0.0646 | 0.0718 | 0.0657 | 0.0813 | 0.0807 | 0.056 | 0.0611 | 0.0713 | 0.0474 | 0.0486 | 0.0689 | 0.0597 | 0.0539 | – | 0.0501 | – | 0.0802
29 | R106Y | 0.0719 | 0.0688 | 0.0834 | 0.0954 | 0.104 | – | 0.0626 | 0.0594 | 0.0287 | – | 0.0617 | 0.0867 | 0.0502 | 0.0377 | 0.0748 | 0.0782 | – | 0.0445 | –
30 | R106M | 0.0658 | – | 0.051 | 0.12 | 0.0617 | – | – | – | – | 0.109 | 0.0391 | – | – | 0.0536 | – | – | – | 0.0751 | 0.107
31 | R106V | 0.0718 | – | – | 0.0772 | 0.075 | 0.084 | – | 0.0743 | 0.0608 | 0.0714 | 0.0605 | – | 0.0566 | 0.0575 | 0.0764 | 0.0829 | – | – | –
